Assay results taken from ChEMBL document CHEMBL1201862, “PubChem BioAssay data set” (2004).
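Assay format: 96-well plates, 48-hour exposure. GI50: concentration for 50% inhibition of growth.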 The source made the active and inactive calls. Cut-off read from the data, not from the text of the source: active = GI50 up to about 1.1 µM and inactive = higher.

The compounds below were run on NCI-H322M (assay: growth of human tumour cells (NCI), 48 h).

| SMILES | GI50 |
| --- | --- |
| COc1cccc(CCn2c(N)c(C#N)c3ccc([N+](=O)[O-])cc3c2=O)c1 | inactive: > 46.5 µM |
| C=CC1C(OC2OC(CO)C(O)C(O)C2O)OC=C(C(=O)OC)C1CC=O (stereo not given) | inactive: > 100 µM |
| O=C(NCCCNC(=O)c1ccc2cc(O)c(O)cc2c1)c1ccc2cc(O)c(O)cc2c1 | inactive: 30.2 µM |
| Cc1ccccc1Cn1nc2ccccc2cc1=O | inactive: > 100 µM |
| COc1ccc(-c2c(-c3ccccc3)c(C)nc3[nH]c(=S)[nH]c(=S)c23)cc1OC | inactive: 14.2 µM |
| O=S(=O)(O)c1cc(/N=N/c2c(O)ccc3ccccc23)cc2c(S(=O)(=O)O)cccc12 | inactive: > 100 µM |
| O=C1Nc2ccccc2[C@]12C[C@H]2c1ccccn1 | inactive: > 100 µM |
| O=C1CCCC2(c3ccccc3)Nc3ccccc3N12 (stereo not given) | inactive: > 100 µM |
| CN(C)C(=O)Oc1ccc(C(=S)Nc2ccccc2)cc1 | inactive: > 100 µM |
| COC(=O)/C=C1\C(=O)C=C2[C@@H]3C[C@H]4C[C@H](CC[C@@]4(C)N21)C3(C)NC(C)=O (stereo not given in full) | inactive: 20.3 µM |
| C(=C\c1ccccc1)/C=N/c1ccc2c(c1)Cc1ccccc1-2 | inactive: > 100 µM |
| N[C@@H]1CCN(c2c(F)cc3c(=O)c(C(=O)O)cn4c3c2Oc2cc3c(ccc5ccccc53)cc2-4)C1 | active: 1.11 µM |
| O=C1NC(=O)c2c1n(Cc1ccccc1)c(=O)n2Cc1ccccc1 | inactive: > 100 µM |
| COc1ccc2nc3ccc(OC)cc3c(SCC3CO3)c2c1 (stereo not given) | inactive: 18.8 µM |
| O=S(=O)(/C=C/C=C/S(=O)(=O)c1ccccc1)c1ccccc1 | inactive: 15.3 µM |
| CCOC(=O)NCC(=O)NCC(=O)NCC(N)=O | inactive: > 100 µM |
| OC[C@H]1C[C@@H]2Cc3ccccc3N2N1 | inactive: > 100 µM |
| ClC1=NSSC1(Cl)Cl | inactive: > 100 µM |
| CC(=O)Nc1ccc(NNc2cc(=O)n(C)c(=O)[nH]2)cc1 | inactive: 13.6 µM |
| N#CCCN(CCC#N)c1ccc(/C=C2\N=C(c3ccccc3)N(c3ccccn3)C2=O)cc1 | inactive: > 100 µM |
| C=CCC12CC(=O)CCC1c1ccc(OC)cc1C2=O (stereo not given) | inactive: > 100 µM |
| O=C(Nc1nnc(S)[nH]1)C(=O)C(C(=O)c1ccc2ccccc2c1)C1OC(=O)c2ccccc21 (stereo not given) | inactive: 17.7 µM |
| Brc1ccc(/N=N/N2CCCC2)cc1 | inactive: > 100 µM |

| SMILES | GI50 |
| --- | --- |
| CCOC(=O)C1(Cc2ccc3ccccc3c2)CCCCCN1 (stereo not given) | inactive: 46.7 µM |
| COC(=O)C12OCC34C(CC5C(C)=C(O)C(=O)CC5(C)C3C(O)C1O)OC(=O)C(OC(=O)C=C(C)C)C24 (stereo not given) | inactive: > 500 µM |
| COc1cc(C2c3cc4c(cc3OC(O)C2C)OCO4)cc(OC)c1OC (stereo not given) | active: 0.614 µM |
| COC(=O)C1CC2(CCC1=O)Cc1ccccc1C2=O (stereo not given) | inactive: > 100 µM |
| O=C1c2ccccc2C(=O)N1C/C=N/NS(=O)(=O)c1ccc(F)cc1 | inactive: > 100 µM |
| COC(=O)C1=CO[C@@H](OC2OC(CO)C(O)C(O)C2O)[C@H]2[C@@H](C)[C@@H](O)[C@@H](O)[C@@H]12 (stereo not given in full) | inactive: > 100 µM |
| O=C1/C(=C\c2cccc(Oc3ccccc3)c2)SC(c2ccccc2)N1c1cc(Cl)ccc1Cl (stereo not given) | inactive: 93.5 µM |
| CC(=O)OCC1OC(n2c(N)c(C#N)c(C)c(C#N)c2=S)C(OC(C)=O)C(OC(C)=O)C1OC(C)=O (stereo not given) | inactive: > 100 µM |
| C[C@H]1O[C@@H](O[C@H]2[C@@H](O)C[C@H](O[C@H]3[C@@H](O)C[C@H](O[C@H]4CC[C@@]5(C)[C@H](CC[C@@H]6[C@@H]5CC[C@]5(C)[C@@H](C7=CC(=O)OC7)[C@@H](O)C[C@]65O)C4)O[C@@H]3C)O[C@@H]2C)C[C@H](O)[C@@H]1O [GITOXIN] | active: 0.235 µM |
| O=C(O)C1CCC(=O)N1C(=O)COc1cc(Cl)c(Cl)cc1Cl (stereo not given) | inactive: > 100 µM |
| Nc1ccc2nc(N)n[n+]([O-])c2c1 | inactive: > 100 µM |
| CCCNC(=O)NNC(=O)c1c[nH]c2nc(C)ccc2c1=O | inactive: > 100 µM |
| COc1c2ccoc2c(S(=O)(=O)Nc2ccc(Cl)cc2)c2oc(C)cc(=O)c12 | inactive: > 100 µM |
| S=C=NCCc1ccccc1 [PHENETHYLISOTHIOCYANATE] | inactive: 1.78 µM |
| C=C1C(=O)OC2/C=C(\C)C3OC3/C=C(/C(=O)OC)C(O)C(OC(=O)C3(C)OC3C)C12 (stereo not given) | inactive: 11.1 µM |
| CC1(C)CCCC2(C)C3=C(CCC12)C(=O)OC3 (stereo not given) | inactive: > 100 µM |
| CC(=O)O[C@]1(C(C)=O)CC[C@H]2[C@@H]3C[C@H](C)C4=CC(=O)C=C[C@]4(C)[C@@]3(F)[C@@H](O)C[C@@]21C [FLUOROMETHOLONE ACETATE] | inactive: > 100 µM |
| CC(NCc1c(O)ccc2ccc(=O)oc12)C(=O)O (stereo not given) | inactive: > 100 µM |
| CC(=O)Nc1ccc(S(=O)(=O)NN(C)S(=O)(=O)c2ccc(C)cc2)cc1 | inactive: > 100 µM |
| O=C(/C=C/c1ccc(OCC(=O)N2CCN(c3ccccc3)CC2)cc1)c1ccc(Cl)cc1 | inactive: > 100 µM |
| Nc1ncnc2c1ncn2CC(O)C(=O)O (stereo not given) | inactive: > 100 µM |
| Cc1nnc(-n2c(O)cc(=O)n(-c3ccccc3)c2=S)nc1/C=C/c1ccc(N(C)C)cc1 | inactive: 18 µM |
| O=C1C(C(O)(C(F)(F)Cl)C(F)(F)Cl)CCC1C(O)(C(F)(F)Cl)C(F)(F)Cl (stereo not given) | inactive: 5.04 µM |

| SMILES | GI50 |
| --- | --- |
| COc1cc2c(cc1O)C=NCC2 | inactive: > 100 µM |
| Cc1cccc(C(C)C)c1NC(=O)CC1Sc2ccccc2NC1=O (stereo not given) | inactive: > 100 µM |
| O=C1OC2C(O)COC2(O)C1(O)Cc1c[nH]c2ccccc12 (stereo not given) | inactive: > 100 µM |
| CN(CCc1ccc(N)cc1)[C@H]1CCCC[C@H]1N1CCCC1 | inactive: > 100 µM |
| Cc1ccc(S(=O)(=O)n2c3c(c4ccccc42)CCN2C(=O)C(S(=O)(=O)c4ccccc4)=CCC32)cc1 (stereo not given) | active: 0.0119 µM |
| CCOP(=O)(OCC)[C@H]1OC(C)(C)O[C@@H]1CO | inactive: > 100 µM |
| COc1ccc(-c2cc(-c3cc(C)ccc3O)nc(O)n2)cc1 | inactive: > 100 µM |
| S=C1CC(c2ccccc2)Sc2ccccc2N1 (stereo not given) | inactive: 60 µM |
| CCCCNC(=S)Nc1nc(C(=O)NNC(=S)NCc2ccccc2)cs1 | inactive: 28.2 µM |
| O=C1NC(=O)c2ccc([N+](=O)[O-])c3cccc1c23 | inactive: 18.6 µM |
| CN1C(=O)C(CC=O)(C(C)(C)C)c2ccccc21 (stereo not given) | inactive: > 100 µM |
| COc1ccc(/[N+]([O-])=C/c2ccccc2OC(=S)S)cc1 | inactive: > 100 µM |
| C(=C\c1cccs1)/c1cccc(/C=C/c2cccs2)n1 | inactive: 27.9 µM |
| O=c1cccc2n1C[C@H]1CNC[C@H]2C1 | inactive: > 100 µM |
| CCOC(=O)C(NC(=O)c1cccc(Cl)c1)(Nc1cccc(C)c1)C(F)(F)F (stereo not given) | inactive: 24 µM |
| CCOC(=O)C1=C(C)N(c2ccc(Cl)cc2)C2(O)C=CC(O)=C3C(=O)c4ccccc4C(=O)C312 (stereo not given) | inactive: 14.7 µM |
| Fc1ccc(NCn2nc(COc3ccccc3Cl)n(/N=C/c3ccc(-c4ccc(Cl)cc4Cl)o3)c2=S)cc1Cl | inactive: > 100 µM |
| CC(C)[Si](OC/C(=C/COC(C)(C)C)[C@H]1CC=C(C(=O)c2ccccc2N2CN(C)C(=O)N(C)C2)C1)(C(C)C)C(C)C | inactive: 17.2 µM |
| Cc1ccc2nc(N/N=C/c3sccc3C)cc(C)c2c1 | inactive: 66.5 µM |
| O=S(=O)(c1ccc(/N=C2\NC(c3ccc(O)cc3)(c3ccccc3O)c3ccccc32)cc1)c1ccc(/N=C2/NC(c3ccc(O)cc3)(c3ccccc3O)c3ccccc32)cc1 (stereo not given) | inactive: 4.21 µM |
| CCCCCC(O)(CCCCC)CCCCCCCCC1=C(O)C(=O)c2ccc(=O)[nH]c2C1=O | inactive: 4.33 µM |
| CNC(=O)OCc1c(COC(=O)NC)c(C)n(-c2ccc(Br)cc2)c1C | inactive: 15.1 µM |
| COc1cc2c(cc1OC)C1Cc3cc(OC)c(OC)cc3C(C2)O1 | inactive: > 100 µM |

| SMILES | GI50 |
| --- | --- |
| COC(=O)C1Cc2ccc(C)cc2C1=O (stereo not given) | inactive: > 100 µM |
| Cc1cc(C)nc(NS(=O)(=O)c2ccc(Nc3c4ccccc4nc4c(C(=O)NNCCO)cccc34)cc2)n1 | inactive: > 100 µM |
| O=C1CN2C(Cl)(Cl)C2(c2ccccc2)c2cc(Cl)ccc2N1CC1CC1 (stereo not given) | inactive: 19.2 µM |
| CC(C)Cc1ccc(C(C)CC2=CCC(CN(C)C)C2=O)cc1 (stereo not given) | inactive: 17.5 µM |
| Cc1cc2c(=O)cc(-c3ccc(C(=O)O)cc3)oc2c(C(=O)O)c1C | inactive: > 100 µM |
| CCOC(=O)Cn1nnc2ccc(Nc3nc4ccccc4nc3-c3ccccc3)cc21 | inactive: 31 µM |
| C/C=C/[C@@H](C(=O)OC)N1C(=O)c2ccccc2[C@H]1O | inactive: > 100 µM |
| COc1ccc(C2CC(c3cc4c(C)c(C(=O)c5ccccc5)oc4cc3O)=Nc3ccccc3S2)cc1OC (stereo not given) | inactive: > 100 µM |
| CC(=O)/C=C1/C(=O)C(CC(C)C)=C1CC(C)C | inactive: > 100 µM |
| NNC(=O)/C(=C/c1ccc(Cl)c(Cl)c1)NC(=O)c1ccccc1 | inactive: > 100 µM |
| O=C1N[C@@H]2c3c(Br)sc(Br)c3C(=O)[C@@H]2O1 | inactive: 8.55 µM |
| CN(C(=O)Cc1cc(Cl)c(Cl)cc1NC(=O)CN)[C@H]1CCCC[C@@H]1N1CCCC1 | inactive: 87.5 µM |
| NC1=NS(=O)(=O)Nc2nc(-c3ccc([N+](=O)[O-])o3)[nH]c21 | inactive: 16.2 µM |
| C[N+](C)(C)CC1Cc2ccccc2C1=O (stereo not given) | inactive: > 10 µM |
| COc1cc(/C=C\c2cccnc2)cc(OC)c1OC | inactive: 96.4 µM |
| C#CC1(O)CCC2[C@@H]3CCc4cc(Oc5nc(F)nc(-c6c7ccccc7c(SCC)n6CCC)n5)ccc4C3CC[C@@]21C (stereo not given in full) | inactive: > 100 µM |
| CCCCCCCCCCCCCCCCP(=O)(O)OCC(N)C(=O)O (stereo not given) | inactive: 13.2 µM |
| Cn1c2ccccc2c(=O)c2c(O)cc3c(c21)C=CC1(CCCC1)O3 | inactive: > 100 µM |
| COc1ccccc1/C=C1\CCC(Cc2ccccc2)(CN(C)C)C1=O (stereo not given) | inactive: 4.27 µM |
| COc1cc2c(cc1OCCCOc1cc(-c3ccc(F)cc3)nc(C)n1)N=C[C@@H]1CCCN1C2=O | inactive: 26.5 µM |
| NC(=O)CC(Nc1ncc2c(n1)-c1ccccc1OC2)C(=O)O (stereo not given) | inactive: > 100 µM |
